# Data published in PMC12136788.
# The list shows a part of the results.
# B1: chr5:10971835:10973713:-|three_prime_utr|ENSG00000169862|control|control|control (ssRNA)
# RNA: GGGAGUUCUACAGUCCGACGAUCGCAUGUGCAUGCAUACCACAAGACAUUUCUUUCUGUUUUGUUUUUUUCUCCUGCAAAUUUAGUUUGUUAAAGCCUGUUCCAUAGGAAGGCUGUGAUAACCAGUAAGGAAAUAUUAAGAGCCAACAGAGGAUUGAGCAUCA
# B2: chr2:135868693:135868794:-|CDS|ENSG00000076003|msi1|FALSE|unique (ssRNA)
# RNA: GGGAGUUCUACAGUCCGACGAUCCCCAGAGCUUGUGAGCGGAACUUUUCUGUGCUUGGACUGUCAGACAGUGAUCAGGGAUGUAGAACAGCAGUUCAAAUACACACAGCCAAACAUCUGCCGAAAUCCAGUUUGUGCCAACAGCAACAGAGGAUUGAGCAUCA
# B3: chr2:1633824:1633925:-|3pUTR|ENSG00000130508|msi1|total|mutant (ssRNA)
# RNA: GGGAGUUCUACAGUCCGACGAUCAUUUAAUUCUUUUAAAAUGAAAAAUUGGUGCUACUAUUAAAUUGCACAGUUGAAUCAUUCCGGCGCCUAAAUUGAUUUUGCCUCCCAACACCAUUUCUUUUUAAAUAAAGCAGGAUACCUCAACAGAGGAUUGAGCAUCA
# B4: chr2:32415991:32416109:+|CDS|ENSG00000115760|unk|total|mutant (ssRNA)
# RNA: GGGAGUUCUACAGUCCGACGAUCUGACAUUUCUACUCUUGGACACCUGGUAAUAACCACUCAGGGAGGAUAUGUAAAAAUACCCGAUCUUUCAAACUUUGAAAUUUUGGCCAAAGUGGAGCCUCCCAAAAAGGAGGGCACUGACAACAGAGGAUUGAGCAUCA
# B5: ENSG00000136451:be:win_4251|3pUTR|ENSG00000136451|bound_else_gene|NA|bound_elsewhere_windowed (ssRNA)
# RNA: GGGAGUUCUACAGUCCGACGAUCCUAAACAGUUGUAUUAGAUAAUCCUUAAAUCUGACAUCCAGCCUGUUACGCUCUAGGGCUCGCUGCUUGGCCUGCGUUUGCUUUUUAUUGUGUAUCCGUUCCCCUCCUACGGUGUGCUCCCAACAGAGGAUUGAGCAUCA
# B6: chr8:30995801:30996592:-|three_prime_utr|ENSG00000172733|control|control|control (ssRNA)
# RNA: GGGAGUUCUACAGUCCGACGAUCUUGUUUUUUUUAAUUCAUCAAGCCUUUCGUUUUCAAACCACCAUUUGUCAGCCUUGAGGUAGAGAGACAUAUAGAUUUGAAAAUACUUUCUUAAGAGAUCAUGUAACUAUAUAACUCUGACAACAGAGGAUUGAGCAUCA
# B7: chr1:205657850:205659233:-|three_prime_utr|ENSG00000158715|control|control|control (ssRNA)
# RNA: GGGAGUUCUACAGUCCGACGAUCACUUCCAGCACAUUGGGGUGGAGGGCCUGCCUCACUGGGUCCCAGCUCCCCGCUCCUGUUAGCCCCAUGGGGCUGCCGGGCUGGCCGCCAGUUUCUGUUGCUGCCAAAGUAAUGUGGCUCCAACAGAGGAUUGAGCAUCA
# B8: chr11:35229396:35229958:+|3pUTR|ENSG00000026508|msi1|FALSE|unique (ssRNA)
# RNA: GGGAGUUCUACAGUCCGACGAUCAUAUGUAUUCCUGAUCGCCAACCUUUCCCCCACCAGCUAAGGACAUUUCCCAGGGUUAAUAGGGCCUGGUCCCUGGGAGGAAAUUUGAAUGGGUCCAUUUUGCCCUUCCAUAGCCUAAUCCAACAGAGGAUUGAGCAUCA
# B9: chr11:112070992:112071283:-|CDS|ENSG00000150773|control|control|control (ssRNA)
# RNA: GGGAGUUCUACAGUCCGACGAUCAAUAAAAGGAAGCAUUCAAAGAAUGAAACAAAAUCUGAUGGGAAUCCAAACUGAUUCCAUAGAUUUAAGAGAAAAAAUGAGAAGGGGUAAGUUGAUGAUUGUAAAUGGAAAAUUAAACUGCAACAGAGGAUUGAGCAUCA
# B10: chr8:6757792:6757893:+|3pUTR|ENSG00000155189|msi1|FALSE|unique (ssRNA)
# RNA: GGGAGUUCUACAGUCCGACGAUCAUUUAUUACAACUUGACAGCUCCAAGCUCUUAUUACUAAAGUAUUUAGUAUCUUGCAGCUAGUUAAUAUUUCAUCUUUUGCUUAUUUCUACAAGUCAGUGAAAUAAAUUGUAUUUAGGAACAACAGAGGAUUGAGCAUCA
# B11: chr3:81489889:81489990:-|3pUTR|ENSG00000114480|msi1|FALSE|unique (ssRNA)
# RNA: GGGAGUUCUACAGUCCGACGAUCUUGGUCUAAAUUAUGAGGUACCAAGAUUGUUUCUUUGUUUCUUUUUUUCAAAUUGUGUUUAGAAAUACUGUAAUAAAUAUGCAGUAGUGAUAUAAAGAAUUAUAUCCAAGGUAAUAUAAACAACAGAGGAUUGAGCAUCA
# B12: chrX:51895182:51895295:+|CDS|ENSG00000179222|unk|FALSE|unique (ssRNA)
# RNA: GGGAGUUCUACAGUCCGACGAUCAGUUCACAGCCCCCAACUGCCAAUGAGAUGGCUGACAUUCAGGUUUCAGCAGCUGCCGCUAGGCCUAAGUCAGCCUUUAAAGUCCAGAAUGCCACCACAAAAGGCCCAAAUGGUGUCUAUCAACAGAGGAUUGAGCAUCA
# B13: chr22:46679111:46679212:+|3pUTR|ENSG00000075240|msi1|FALSE|unique (ssRNA)
# RNA: GGGAGUUCUACAGUCCGACGAUCAGGGCCCGGCAGUGCCCAAGGAUGGGUCCGGGGCCUCGGGGCCAAUGAGCGCCUCUUCCUAGGUGCUGGGAUUCAGUCCCCAAACACAGCGGGAGGGGUCCCUGGGGCAGAUGGGGCUUUCAACAGAGGAUUGAGCAUCA
# B14: chr5:147393764:147393895:-|3pUTR|ENSG00000113657|msi1_unk|total|mutant (ssRNA)
# RNA: GGGAGUUCUACAGUCCGACGAUCUCCAAUGUUACGCUCGCUUGCCCCGCUUUACGAAUAUUGCUUUGUUUUCUGUUUAUGCACCGCCUUGAUUUGUUUGACUCCCCUCCCCCCAUUUACAUGCAUGCAAUCAGACAGGCCACUCAACAGAGGAUUGAGCAUCA
# Molecular target: T1, UNK ZnF1-6 (called full-length) (human, UniProt Q9C0B0 30-357)
# T1 sequence: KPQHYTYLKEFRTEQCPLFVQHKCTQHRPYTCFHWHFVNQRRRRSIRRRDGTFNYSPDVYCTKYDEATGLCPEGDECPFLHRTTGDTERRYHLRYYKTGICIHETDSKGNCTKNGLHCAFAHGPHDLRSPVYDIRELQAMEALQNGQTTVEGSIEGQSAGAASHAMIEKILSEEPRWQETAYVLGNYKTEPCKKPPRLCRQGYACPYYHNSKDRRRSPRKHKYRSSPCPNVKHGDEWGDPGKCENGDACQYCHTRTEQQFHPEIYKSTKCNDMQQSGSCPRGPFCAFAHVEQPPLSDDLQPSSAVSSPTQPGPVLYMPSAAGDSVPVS
# Test: nsRBNS (natural sequence RNA bind-n-seq); RBNS binding buffer (assumed for nsRBNS): 25 mM Tris pH 7.5, 150 mM KCl, 3 mM MgCl2, 0.01% Triton X-100, 500 ug/ml BSA, 20 U/ml SUPERase-In, 4 C; UNK is unkempt and MSI1 is Musashi-1; names of the RNAs are library labels; protein concentration not given here; high values mean tight binding
row,Binder,binding signal [enrichment R]
1,B1,0.511
2,B2,0.852
3,B3,0.761
4,B4,0.504
5,B5,0.615
6,B6,0.67
7,B7,0.783
8,B8,0.772
9,B9,0.74
10,B10,0.788
11,B11,1.8
12,B12,0.588
13,B13,0.754
14,B14,0.884
